Among all 310,000 compounds or so, about 14,000 (4.5%) showed an effect of 50% or more. The effect is printed as a negative number. The list shows a part of the results.
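Further: peak tail current of the secondary pulse compared with the same well before compound.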

The experiment deals with human ether-à-go-go-related gene (hERG) potassium channel (human, UniProt Q12809). The experiment can be described thus: primary screen, population patch clamp on CHO cells stably expressing hERG.
Chain of human ether-à-go-go-related gene (hERG) potassium channel (Q12809 whole entry, looked up): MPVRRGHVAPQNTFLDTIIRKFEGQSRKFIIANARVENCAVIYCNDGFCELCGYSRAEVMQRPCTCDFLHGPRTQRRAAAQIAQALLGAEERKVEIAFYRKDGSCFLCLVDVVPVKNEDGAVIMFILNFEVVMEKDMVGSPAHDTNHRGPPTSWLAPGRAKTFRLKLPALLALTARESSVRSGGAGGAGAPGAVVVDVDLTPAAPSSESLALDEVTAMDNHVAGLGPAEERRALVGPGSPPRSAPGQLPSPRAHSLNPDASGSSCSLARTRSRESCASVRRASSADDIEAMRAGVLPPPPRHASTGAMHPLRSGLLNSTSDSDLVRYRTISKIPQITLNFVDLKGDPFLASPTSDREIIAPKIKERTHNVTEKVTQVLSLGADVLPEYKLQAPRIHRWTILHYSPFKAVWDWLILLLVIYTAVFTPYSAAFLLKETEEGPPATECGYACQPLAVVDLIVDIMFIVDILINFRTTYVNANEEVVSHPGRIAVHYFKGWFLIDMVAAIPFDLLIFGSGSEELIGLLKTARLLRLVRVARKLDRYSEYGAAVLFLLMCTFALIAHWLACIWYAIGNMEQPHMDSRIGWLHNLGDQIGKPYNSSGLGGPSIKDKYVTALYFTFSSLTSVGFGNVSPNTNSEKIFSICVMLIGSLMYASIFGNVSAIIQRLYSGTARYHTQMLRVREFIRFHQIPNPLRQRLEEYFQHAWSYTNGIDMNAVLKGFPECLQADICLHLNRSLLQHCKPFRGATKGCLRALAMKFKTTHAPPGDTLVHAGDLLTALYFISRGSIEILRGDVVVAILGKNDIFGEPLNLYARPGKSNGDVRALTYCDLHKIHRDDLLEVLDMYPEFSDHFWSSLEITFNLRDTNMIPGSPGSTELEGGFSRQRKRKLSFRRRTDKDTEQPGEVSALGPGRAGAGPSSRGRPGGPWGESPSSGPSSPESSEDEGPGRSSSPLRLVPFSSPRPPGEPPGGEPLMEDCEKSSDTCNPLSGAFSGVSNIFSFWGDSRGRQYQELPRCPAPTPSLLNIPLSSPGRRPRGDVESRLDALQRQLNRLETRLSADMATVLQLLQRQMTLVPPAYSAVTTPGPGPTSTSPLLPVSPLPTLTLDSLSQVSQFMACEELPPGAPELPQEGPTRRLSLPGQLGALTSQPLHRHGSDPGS
`COc1cc2c(cc1OC)C(C)N(C(=O)C1=NN(c3cccc(C)c3)C(=O)CC1)CC2` (centres unmarked): the “hERG current change (%, negative = inhibition) at 10uM” value came out at 1.19%.

Take `O=C(Cn1c(=O)oc2ccc(Cl)cc21)NC1CCCCC1`: the “hERG current change (%, negative = inhibition) at 10uM” value is listed as 24.9%.

`Cc1ccc(C(=O)Nc2ccc(S(=O)(=O)N3CCOCC3)cc2)cc1C`: the “hERG current change (%, negative = inhibition) at 10uM” value came out at 13.1%.

Turning to `CCOC(=O)C1(CC2CC2)CCN(Cc2cnc(-c3ccc(OC)cc3)nc2)CC1`, the “hERG current change (%, negative = inhibition) at 10uM” value was -21.9%.

Turning to `Cc1cccc(-n2c(SCC(=O)Nc3ncc(Cl)cc3Cl)nc3ccccc32)c1`, the “hERG current change (%, negative = inhibition) at 10uM” value was 15%.

Consider `O=C1Nc2cc(Cl)ccc2Nc2cscc21`, for which the “hERG current change (%, negative = inhibition) at 10uM” value is -0.0955%.

For the compound `CC1=NN(C(=O)c2ccccc2)C(O)(c2ccc(Br)cc2)C1` (centres unmarked), the “hERG current change (%, negative = inhibition) at 10uM” value amounted to 17.4%.

Take `CC(=O)c1cccc(CN2CCCC(CCC(=O)NCc3ccc(F)c(F)c3)C2)c1` (centres unmarked): the “hERG current change (%, negative = inhibition) at 10uM” value is recorded as -74.7%.

In the case of `CCOC(=O)CSc1nc2c(c(=O)n(Cc3ccccc3Cl)c(=O)n2C)n1C`, the “hERG current change (%, negative = inhibition) at 10uM” value is recorded as -36.2%.

In the case of `CC(C)c1ccc(CNNC(=O)c2ccccc2)cc1`, the “hERG current change (%, negative = inhibition) at 10uM” value was -0.864%.

`CCOC(=O)N1CCN(Cc2nc(N)nc(Nc3ccc(Oc4ccccc4)cc3)n2)CC1`: the “hERG current change (%, negative = inhibition) at 10uM” value was -70.7%.

On to `CCc1nn(CC(=O)NCCC(C)C)c(=O)c2cc3c(OC)cccc3n12`, for which the “hERG current change (%, negative = inhibition) at 10uM” value was found to be 10%.

On to `COc1cccc(S(=O)(=O)Nc2noc3ccccc23)c1`, for which the “hERG current change (%, negative = inhibition) at 10uM” value worked out at 17%.

In the case of `O=c1[nH]ncn1-c1ccc(Br)cc1`, the “hERG current change (%, negative = inhibition) at 10uM” value stood at 12.1%.

On to `COc1ccc(N2CCN(C(=O)Cc3ccc(Cl)cc3)CC2)cc1`, for which the “hERG current change (%, negative = inhibition) at 10uM” value is -37.5%.

As to `CCOc1ccccc1NC(=O)c1ccc2c(c1)C(=O)N(CC1CCCO1)C2=O` (centres unmarked), the “hERG current change (%, negative = inhibition) at 10uM” value came to 7.1%.

As to `Cc1ccc(-n2nc(C)cc2N)c(C)c1.Cl`, the “hERG current change (%, negative = inhibition) at 10uM” value is on record as 10.4%.

As to `Cc1nc(C(=O)NNC(=O)c2ccccc2Cl)c(C(F)(F)F)o1`, the “hERG current change (%, negative = inhibition) at 10uM” value stood at 13.3%.

On to `O=c1c2ccccc2n2cnnc2n1-c1ccccc1`, for which the “hERG current change (%, negative = inhibition) at 10uM” value is reported as 10.1%.

For `NS(=O)(=O)c1ccc(N/C=C/C(=O)c2ccc(Br)cc2)cc1`, the “hERG current change (%, negative = inhibition) at 10uM” value was 11.3%.

Consider `Cc1nc(SCC(=O)N2CCc3ccccc32)n[nH]1`, for which the “hERG current change (%, negative = inhibition) at 10uM” value was 11%.

`CCCCOC(=O)Nc1ccccc1C(=O)OC`: the “hERG current change (%, negative = inhibition) at 10uM” value came out at 0.924%.

Regarding `COc1ccc(-c2cc(=O)oc3cc(O)ccc23)cc1`, the “hERG current change (%, negative = inhibition) at 10uM” value is on record as 16.1%.

As to `CC(C)Cc1ccc(-c2cc(=O)[nH][nH]2)cc1`, the “hERG current change (%, negative = inhibition) at 10uM” value was 2.57%.

Regarding `COc1ccc(CNC(=O)CSCc2cccc(Cl)c2)cc1`, the “hERG current change (%, negative = inhibition) at 10uM” value was -16.4%.

For `COc1cc(NC(=O)CCNS(=O)(=O)c2ccc3c(c2)CCC(=O)N3)cc(OC)c1`, the “hERG current change (%, negative = inhibition) at 10uM” value is recorded as 14.6%.

With `COC(=O)NNC(=O)COc1ccc(Cl)cc1`, the “hERG current change (%, negative = inhibition) at 10uM” value is -10.3%.

Turning to `Cc1nn(C)c(C)c1Sc1ccccc1N`, the “hERG current change (%, negative = inhibition) at 10uM” value is recorded as 13.5%.

As to `COc1ccc(C(=O)CSc2n[nH]c(=O)[nH]c2=O)cc1`, the “hERG current change (%, negative = inhibition) at 10uM” value is 14.9%.

As for `O=C(Cc1ccc(Br)cc1)NNC(=O)Nc1ccc(Cl)cc1`, the “hERG current change (%, negative = inhibition) at 10uM” value came to 16.4%.

Take `O=C(NNC(=O)c1ccc2ccccc2c1O)c1cccs1`: the “hERG current change (%, negative = inhibition) at 10uM” value is recorded as 11.3%.

With `COc1ccc(CC2(CO)CCN(Cc3cnn(-c4ccccc4OC)c3)CC2)cc1`, the “hERG current change (%, negative = inhibition) at 10uM” value is given as -64.8%.

As for `COc1cccc(-n2nc(C(C)=O)c(=O)[nH]c2=O)c1`, the “hERG current change (%, negative = inhibition) at 10uM” value came out at 3.8%.

For `CN(CC(=O)Nc1ccc(Cl)c(C(F)(F)F)c1)C(=O)C1CC(=O)N(Cc2ccco2)C1` (centres unmarked), the “hERG current change (%, negative = inhibition) at 10uM” value is -20.1%.

For the compound `O=C(NCc1ccccc1)c1ccc(S(=O)(=O)N2CCCC2)cc1`, the “hERG current change (%, negative = inhibition) at 10uM” value is recorded as -6.97%.

For the compound `CC(=O)Nc1nonc1-c1nc2ccccc2n1CCC#N`, the “hERG current change (%, negative = inhibition) at 10uM” value is listed as 4.73%.

In the case of `COc1ccc2o/c(=N\O)c(C(=O)Nc3ccccc3OC)cc2c1`, the “hERG current change (%, negative = inhibition) at 10uM” value turned out to be 21.1%.

Regarding `CCOC(=O)N1CCC(N2CCCC(C(=O)c3ccc4cc(OC)ccc4c3)C2)CC1` (centres unmarked), the “hERG current change (%, negative = inhibition) at 10uM” value is reported as -74.3%.

Take `Nc1nnn(CC(=O)N/N=C/c2ccncc2)n1`: the “hERG current change (%, negative = inhibition) at 10uM” value is 1.88%.

`CC(=O)NC(Cc1ccccc1)Cc1ccccc1`: the “hERG current change (%, negative = inhibition) at 10uM” value stood at 20.7%.

Consider `Cc1ccc(C(=O)c2nc3c(n2O)CCCC3)cc1`, for which the “hERG current change (%, negative = inhibition) at 10uM” value is on record as -0.728%.

Consider `Cc1ccccc1NC(=O)COC(=O)c1cc[n+]([O-])cc1`, for which the “hERG current change (%, negative = inhibition) at 10uM” value is listed as -12.2%.

Regarding `CC1CCN(CC(=O)N2CCc3ccccc32)CC1`, the “hERG current change (%, negative = inhibition) at 10uM” value is 8.25%.

`Cc1cccc(-n2c(O)c(C=Nc3ccccc3-c3n[nH]c(=S)[nH]c3=O)c3ccccc3c2=O)n1`: the “hERG current change (%, negative = inhibition) at 10uM” value is -25.2%.

The values above are taken from PMC4336329 (PLoS ONE, 2015).
